# Test results from PubChem BioAssay (Tox21).
# Several values for one entry are separate records, joined by “and”; a condition that tells them apart may be missing. Identical values can stand only once. The inconclusive results got no clear call from the source; some entries with a clear call stand among them for comparison. For some of these results: A potency beside an inconclusive call is a rough fit, not a confirmed value. A structure can be active in one record and inactive in another. Activity calls are given as the source filed them. Unless noted, the call rests on the fitted dose curve; in most records, active means well fitted curve in the direction sought with a large enough effect in the repeat runs; inconclusive means weak or mixed curves; inactive means no such curve, though single readings can be large; an effect the other way counts as inactive or inconclusive.
# What was measured:
# [1] = qHTS assay to identify small molecule agonists of the progesterone receptor (PR) signaling pathway - cell viability counter screen (AID 1346799; calls by dose curve; further: nearly all actives have a fitted effect of over 45% in size; further: potency means the concentration at half of the fitted maximal effect); conditions: PR-UAS-bla HEK293T viability, CellTiter-Glo luminescence, 16 h; series mostly up to 92.4 µM
# In short: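 Luminescence from CellTiter-Glo, added after the beta-lactamase FRET read in the same wells, gave cytotoxicity in PR-UAS-bla HEK293T cells treated with compounds for 16 hr at 37C.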
# [2] = target: Nuclear receptor subfamily 1 group I member 2 (Homo sapiens) (UniProt O75469); experiment: Human pregnane X receptor (PXR) small molecule agonists, qHTS assay (AID 1346982); conditions: PXR-Luc HepG2, CYP3A4 luciferase reporter, 24 h; series mostly up to 92.4 µM; further: nearly all actives have a fitted effect of over 35% in size; further: potency means the concentration at half of the fitted maximal effect
# In short: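 We seeded PXR-Luc HepG2 cells in assay medium containing 5% charcoal-stripped FBS, added compounds 5 hr later, incubated 24 hr, and read luminescence with ONE-Glo reagent.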
# [3] = target: Cytochrome P450 2C19 (Homo sapiens) (UniProt P33261); experiment: Cytochrome P450 Family 2 Subfamily C Member 19 (CYP2C19) small molecule antagonists: luciferase reporter qHTS assay (AID 1671197); conditions: P450-Glo CYP2C19 enzyme, luciferin luminescence, 1 h; series mostly up to 115 µM; further: nearly all actives have a fitted effect of over 65% in size; further: potency means the concentration at half of the fitted maximal effect
# In short: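 First, compounds are pinned into enzyme-substrate mix and held 10 min at room temperature. Second, NADPH regeneration solution is added and plates incubate 1 h at 37C. Third, detection reagent is added and luminescence read after 20 min.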
# [4] = target: Cytochrome P450 2C9 (Homo sapiens) (UniProt P11712); experiment: Cytochrome P450 Family 2 Subfamily C Member 9 (CYP2C9) small molecule antagonists: luciferase reporter qHTS assay (AID 1671198); conditions: P450-Glo CYP2C9 enzyme assay, luciferin luminescence; series mostly up to 115 µM; further: nearly all actives have a fitted effect of over 50% in size; further: potency means the concentration at half of the fitted maximal effect
# In short: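 CYP2C9 activity was measured with a P450-Glo proluciferin substrate. Enzyme–substrate mix was held with compound for 10 min at room temperature, then NADPH regeneration solution was added for 1 h at 37C. Luciferin product was read as luminescence.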
# [5] = target: Cytochrome P450 2D6 (Homo sapiens) (UniProt P10635); experiment: Cytochrome P450 Family 2 Subfamily D Member 6 (CYP2D6) small molecule antagonists: luciferase reporter qHTS assay (AID 1671196); conditions: P450-Glo CYP2D6 enzyme assay, luciferin luminescence, 1 h; series mostly up to 115 µM; further: nearly all actives have a fitted effect of over 50% in size; further: potency means the concentration at half of the fitted maximal effect
# In short: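 Luminescence (RLU), read 20 min after detection reagent, indicated CYP2D6 conversion of proluciferin to luciferin during a 1 h NADPH-dependent reaction at room temperature.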
# [6] = target: Nuclear receptor subfamily 1 group I member 2 (Homo sapiens) (UniProt O75469); experiment: Human pregnane X receptor (PXR) activation by small molecules, qHTS assay (AID 1346985); conditions: DPX-2 HepG2 CYP3A4-luciferase, 24 h; series mostly up to 38.3 µM; further: nearly all actives have a fitted effect of over 40% in size
# In short: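 DPX-2 cells (HepG2 co-transfected with a PXR response element and a CYP3A4-promoter luciferase construct) were seeded at 2,000 per well, rested 5 hr at 37C, then exposed to DMSO-dissolved compounds for 24 hr. Activation was read as luciferase luminescence.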
# [7] = Caspase-3/7 induction in CHO-K1 cells by small molecules, qHTS cell viability counter screen (AID 1346979); conditions: CellTiter-Fluor fluorescence, 17 h; series mostly up to 92.4 µM; further: nearly all actives have a fitted effect of over 35% in size; further: potency means the concentration at half of the fitted maximal effect
# In short: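 Cells (CHO-K1, wild type) are plated at 1,500 per well and incubated 5hr. Test compounds in DMSO are then pinned in, followed by 16hr at 37C and 5% CO2. Viability is read by CellTiter-Fluor fluorescence after 1hr.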
# [8] = Caspase-3/7 induction in HepG2 cells by small molecules, qHTS cell viability counter screen (AID 1346981); conditions: CellTiter-Fluor fluorescence, 17 h; series mostly up to 92.4 µM; further: nearly all actives have a fitted effect of over 30% in size; further: potency means the concentration at half of the fitted maximal effect
# In short: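 Multiplexed with the caspase-3/7 assay: HepG2 cells, 16 hr compound treatment, CellTiter-Fluor viability detection by fluorescence.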
# [9] = Caspase-3/7 induction in CHO-K1 cells by small molecules, qHTS assay (AID 1346980); conditions: CHO-K1 caspase-3/7 induction, Caspase-Glo luminescence, 17 h; series mostly up to 92.4 µM; further: nearly all actives have a fitted effect of over 15% in size
# In short: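 Wild-type cells were seeded at 1,500 per well and settled 5 hr at 37 C, 5% CO2, then exposed to DMSO-dissolved compounds for 17 hr. Caspase-Glo 3/7 reagent was added, and luminescence was read after 30min at room temperature.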
# Tags describe the fitted curve by direction and shape.
# Chain of UniProt P11712 (P11712 whole entry, looked up): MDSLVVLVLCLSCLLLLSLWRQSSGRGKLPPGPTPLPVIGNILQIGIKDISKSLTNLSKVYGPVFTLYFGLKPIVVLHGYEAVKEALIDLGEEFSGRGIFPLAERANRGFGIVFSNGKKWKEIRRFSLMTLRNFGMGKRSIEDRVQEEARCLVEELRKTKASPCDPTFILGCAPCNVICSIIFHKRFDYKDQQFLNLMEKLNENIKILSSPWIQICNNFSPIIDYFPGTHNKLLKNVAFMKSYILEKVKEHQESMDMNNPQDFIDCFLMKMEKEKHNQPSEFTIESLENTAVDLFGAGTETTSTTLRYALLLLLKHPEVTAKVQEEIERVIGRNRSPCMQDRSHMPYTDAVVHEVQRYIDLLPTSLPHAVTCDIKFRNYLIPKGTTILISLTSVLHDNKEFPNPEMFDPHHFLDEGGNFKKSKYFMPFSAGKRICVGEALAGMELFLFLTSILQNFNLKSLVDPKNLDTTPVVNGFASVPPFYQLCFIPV
# Chain of UniProt P33261 (P33261 whole entry, looked up): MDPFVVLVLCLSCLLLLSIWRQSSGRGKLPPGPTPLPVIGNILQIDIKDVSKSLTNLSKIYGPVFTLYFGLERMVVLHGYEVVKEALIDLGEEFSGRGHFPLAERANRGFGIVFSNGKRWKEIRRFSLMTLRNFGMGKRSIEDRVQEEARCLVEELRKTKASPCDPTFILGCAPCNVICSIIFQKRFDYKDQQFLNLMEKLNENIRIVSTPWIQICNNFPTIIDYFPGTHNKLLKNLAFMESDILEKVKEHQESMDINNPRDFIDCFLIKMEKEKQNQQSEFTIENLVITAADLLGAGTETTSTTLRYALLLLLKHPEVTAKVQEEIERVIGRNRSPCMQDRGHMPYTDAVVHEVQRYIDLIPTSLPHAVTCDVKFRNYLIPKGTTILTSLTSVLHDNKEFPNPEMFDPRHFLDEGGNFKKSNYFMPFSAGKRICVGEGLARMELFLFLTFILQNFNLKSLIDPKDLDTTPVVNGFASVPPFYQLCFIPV
# Chain of UniProt O75469 (O75469 whole entry, looked up): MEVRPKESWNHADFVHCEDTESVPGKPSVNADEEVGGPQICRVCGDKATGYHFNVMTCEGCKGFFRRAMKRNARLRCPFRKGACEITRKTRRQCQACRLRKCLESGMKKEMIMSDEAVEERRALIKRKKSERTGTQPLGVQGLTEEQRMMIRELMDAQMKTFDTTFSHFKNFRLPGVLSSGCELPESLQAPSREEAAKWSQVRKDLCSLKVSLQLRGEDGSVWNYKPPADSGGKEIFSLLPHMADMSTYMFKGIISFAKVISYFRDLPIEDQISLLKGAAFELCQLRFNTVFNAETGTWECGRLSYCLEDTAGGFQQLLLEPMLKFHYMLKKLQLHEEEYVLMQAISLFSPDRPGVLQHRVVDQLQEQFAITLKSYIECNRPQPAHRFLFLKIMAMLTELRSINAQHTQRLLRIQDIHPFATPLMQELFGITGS
# Chain of UniProt P10635 (P10635 whole entry, looked up): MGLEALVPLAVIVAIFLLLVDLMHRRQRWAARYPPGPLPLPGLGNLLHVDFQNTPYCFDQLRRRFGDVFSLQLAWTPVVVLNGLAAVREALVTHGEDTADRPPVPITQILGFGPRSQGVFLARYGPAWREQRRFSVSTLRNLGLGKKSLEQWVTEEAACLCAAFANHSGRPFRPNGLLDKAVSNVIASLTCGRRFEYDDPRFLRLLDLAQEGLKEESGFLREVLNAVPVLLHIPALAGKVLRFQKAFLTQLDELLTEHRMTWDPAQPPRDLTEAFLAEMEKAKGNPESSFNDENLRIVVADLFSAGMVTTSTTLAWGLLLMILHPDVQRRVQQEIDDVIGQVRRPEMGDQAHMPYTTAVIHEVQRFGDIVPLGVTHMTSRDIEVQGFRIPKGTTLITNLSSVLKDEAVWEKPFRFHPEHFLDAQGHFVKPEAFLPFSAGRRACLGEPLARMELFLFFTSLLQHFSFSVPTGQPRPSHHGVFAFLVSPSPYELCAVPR
smiles,measurement,setting,value
CCN(CC)CC(=O)Nc1c(C)cccc1C(=O)OC,Potency,[1],inactive
same,Potency,[2],inactive
same,Potency,[3],"inconclusive: 9.77 µM [inhibitor, single point]"
same,Potency,[4],inactive
COCC(C)N (configuration not stated),Potency,[1],inactive
same,Potency,[5],inactive
O=C(O)[C@@H]1[C@H]2C[C@H]3c4[nH]c5ccccc5c4CCN3C[C@@H]2CC[C@@H]1O,Potency,[1],"inconclusive: 33.5 µM [cytotoxic, partial curve, poor fit]"
same,Potency,[6],inactive
Nc1ccc(NC(=O)c2ccc(N)cc2)cc1,Potency,[1],active: 54.5 µM
same,Potency,[5],inactive
same,Potency,[3],"inconclusive: 89.5 µM [inhibitor, single point]"
same,Potency,[4],"inconclusive: 71.1 µM [inhibitor, partial curve, poor fit]"
Nc1ccc(S(=O)(=O)Nc2ccccc2)cc1,Potency,[1],inactive
same,Potency,[5],"inconclusive: 43.6 µM [inhibitor, single point]"
same,Potency,[3],"inconclusive: 4.9 µM [inhibitor, full curve, poor fit]"
same,Potency,[4],inactive
CC(=O)CCc1ccccc1,Potency,[1],"inconclusive: 0.621 µM [cytotoxic, single point]"
same,Potency,[7],inactive
same,Potency,[3],active: 81 µM and inactive
Cc1c(Cl)cccc1[N+](=O)[O-],Potency,[1],inactive
same,Potency,[5],inactive
same,Potency,[3],inactive
same,Potency,[4],inactive
CC(C)CCCO,Potency,[1],"inconclusive: 2.73 µM [cytotoxic, single point]"
same,Potency,[7],"inconclusive: 68.6 µM [rising, partial curve, poor fit]"
same,Potency,[4],inactive
COC(=O)c1ccccc1Cl,Potency,[1],"inconclusive: 27.3 µM [cytotoxic, single point]"
same,Potency,[5],inactive
Cc1ccc(C)c(C)c1,Potency,[1],inactive
same,Potency,[2],"inconclusive: 14.3 µM [activator, full curve, poor fit]"
same,Potency,[4],inactive
CCCCCCCCCCCC(=O)OCC(O)CO (configuration not stated),Potency,[1],"inconclusive: 10.9 µM [cytotoxic, full curve, poor fit]"
same,Potency,[7],"inconclusive: 68.6 µM [cytotoxic, single point]"
same,Potency,[5],"inconclusive: 71 µM [inhibitor, partial curve]"
same,Potency,[3],active: 79.6 µM
same,Potency,[4],active: 39.9 µM
CC(=O)OC1CCC(C(C)(C)C)CC1 (configuration not stated),Potency,[1],inactive
same,Potency,[8],inactive
CC(C)(C)c1cccc(O)c1,Potency,[1],inactive
same,Potency,[9],inactive
same,Potency,[4],inconclusive: 71 µM [inhibitor]
CCCCCC1Nc2cc(C(F)(F)F)c(S(N)(=O)=O)cc2S(=O)(=O)N1 (configuration not stated),Potency,[1],"inconclusive: 33.5 µM [cytotoxic, partial curve, poor fit]"
same,Potency,[8],inactive
C[C@H](CCC(=O)O)[C@H]1CC[C@H]2[C@@H]3[C@H](O)C[C@@H]4C[C@H](O)CC[C@]4(C)[C@H]3C[C@H](O)[C@]12C,Potency,[1],inactive
same,Potency,[5],inactive
CCCCCCOC(=O)CC(CC(=O)OCCCCCC)(OC(=O)CCC)C(=O)OCCCCCC,Potency,[1],"inconclusive: 15.4 µM [rising, full curve]"
same,Potency,[2],inactive
CC(=O)/C=C/C=C1/C2CCC(C2)C1(C)C (configuration not stated),Potency,[1],inactive
same,Potency,[5],"inconclusive: 17.4 µM [inhibitor, full curve]"
same,Potency,[3],"inconclusive: 21.9 µM [inhibitor, partial curve, poor fit]"
same,Potency,[4],"inconclusive: 34.7 µM [inhibitor, partial curve]"
C=Cc1cccc(C)c1,Potency,[1],"inconclusive: 53.9 µM [rising, partial curve]"
same,Potency,[2],"inconclusive: 60.5 µM [activator, single point]"
same,Potency,[3],"inconclusive: 62.6 µM [inhibitor, partial curve, poor fit]"
same,Potency,[4],inactive
Nc1ccc(Cl)c(N)c1,Potency,[1],inactive
same,Potency,[8],inactive
same,Potency,[2],"inconclusive: 48.6 µM [activator, partial curve]"
same,Potency,[4],"inconclusive: 31.8 µM [inhibitor, partial curve] and inconclusive: 35.6 µM [inhibitor, partial curve]"
COC(=O)CCCCCCCC(=O)OC,Potency,[1],"inconclusive: 1.54 µM [cytotoxic, single point]"
same,Potency,[5],"inconclusive: 56.4 µM [inhibitor, partial curve]"
Cc1ccc([N+](=O)[O-])c(C)c1,Potency,[1],active: 19.3 µM
same,Potency,[8],"inconclusive: 1.22 µM [cytotoxic, full curve, poor fit]"
same,Potency,[4],inconclusive: 39.9 µM [inhibitor]
CS(=O)(=O)c1ccc([C@@H](O)[C@@H](CF)NC(=O)C(Cl)Cl)cc1,Potency,[1],inactive
same,Potency,[2],inactive
same,Potency,[4],"inconclusive: 38.9 µM [inhibitor, partial curve, poor fit]"
